Laboratory results from the supplement of paper PMC4967469.
IC50 is the fitted dose that halves viability relative to control wells, and lower means more sensitive; where the fit passes the top or lowest dose, that dose stands as a limit. AUC, from the same fit, is the share of area under the viability curve across the 256-fold dose range; values near 1 show little effect. Where the top dose is marked as inferred, it was calculated from the reported fits.

Compound: CC1=C(C(=O)Nc2cc3cn[nH]c3cc2F)C(c2ccc(C(F)(F)F)cc2)CC(=O)N1 [GSK429286A]
Assay: Viability of human cancer cell lines after 72 h of drug (GDSC screen)
Settings: top dose inferred
Experimental: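 Human cancer cell lines in 384-well plates, medium with 10% serum, drug for 72 h over a 256-fold dose range (nine 2-fold or five 4-fold steps up to the top dose). Adherent lines were fixed and stained with the nucleic acid dye Syto60, suspension lines read with resazurin; signal relative to control wells, capped at 0 and 100%. One two-parameter sigmoid per drug and line, fitted in a mixed model over all curves with the slope shared within a line.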

Compared with “RPMI-7951 (melanoma, adherent, top dose 20 µM)”, “RH-41 (rhabdomyosarcoma, adherent, top dose 20 µM)” is higher in AUC: 0.873 for the first, 0.992 for the second.

Going from “SNU-182 (liver, adherent, top dose 10.24 µM)” to “A101D (melanoma, adherent, top dose 20 µM)”, the AUC rises from 0.957 to 0.98.

First: BEN (non-small cell lung carcinoma, adherent, top dose 20 µM)
Second: LoVo (large intestine, adherent, top dose 20 µM)
The AUC of the first is lower: 0.959 for the first, 0.986 for the second.

First: NCI-H520 (lung squamous cell carcinoma, adherent, top dose 20 µM)
Second: EFM-192A (breast, adherent, top dose 20 µM)
The AUC of the first is lower: 0.969 for the first, 0.986 for the second.

Compared with “Caov-4 (ovary, adherent, top dose 20 µM)”, “HOS (osteosarcoma, adherent, top dose 20 µM)” is higher in AUC: 0.98 for the first, 0.992 for the second.

Compared with “EW-11 (Ewing sarcoma, adherent, top dose 20 µM)”, “GDM-1 (acute myeloid leukaemia, suspension, top dose 20 µM)” is lower in AUC: 0.949 for the first, 0.385 for the second.

Going from “WM793B (melanoma, adherent, top dose 20 µM)” to “OCUM-1 (stomach, adherent, top dose 20 µM)”, the AUC rises from 0.924 to 0.986.

Compared with “CAL-29 (bladder, adherent, top dose 20 µM)”, “HCC2157 (breast, suspension, top dose 20 µM)” is lower in AUC: 0.983 for the first, 0.975 for the second.

Compared with “SIMA (neuroblastoma, adherent, top dose 20 µM)”, “WSU-DLCL2 (B-cell lymphoma, suspension, top dose 20 µM)” is higher in AUC: 0.932 for the first, 0.935 for the second.

Compared with “NCI-H2141 (small cell lung carcinoma, suspension, top dose 20 µM)”, “A427 (non-small cell lung carcinoma, adherent, top dose 20 µM)” is higher in AUC: 0.968 for the first, 0.979 for the second.

Going from “Hs633T (fibrosarcoma, adherent, top dose 20 µM)” to “SW948 (large intestine, adherent, top dose 20 µM)”, the AUC rises from 0.936 to 0.972.

First: TUR (B-cell lymphoma, suspension, top dose 20 µM)
Second: JVM-2 (lymphoid neoplasm, suspension, top dose 20 µM)
The AUC of the first is higher: 0.967 for the first, 0.959 for the second.

“IA-LM (large cell lung carcinoma, adherent, top dose 20 µM)” and “NCI-H2342 (lung adenocarcinoma, adherent, top dose 20 µM)” are the same in AUC: 0.983 for the first, 0.983 for the second.

Compared with “NCI-H1836 (small cell lung carcinoma, suspension, top dose 20 µM)”, “NOMO-1 (acute myeloid leukaemia, suspension, top dose 20 µM)” is lower in AUC: 0.977 for the first, 0.929 for the second.

Compared with “BxPC-3 (pancreas, adherent, top dose 20 µM)”, “Hs766T (pancreas, adherent, top dose 20 µM)” is lower in AUC: 0.981 for the first, 0.98 for the second.

Compared with “SNU-81 (large intestine, adherent, top dose 20 µM)”, “KYSE-220 (oesophagus, adherent, top dose 20 µM)” is higher in AUC: 0.981 for the first, 0.982 for the second.

Compared with “G-361 (melanoma, adherent, top dose 20 µM)”, “SIG-M5 (acute myeloid leukaemia, suspension, top dose 20 µM)” is lower in AUC: 0.965 for the first, 0.535 for the second.

Going from “8-MG-BA (glioma, adherent, top dose 20 µM)” to “RERF-LC-KJ (lung adenocarcinoma, adherent, top dose 20 µM)”, the AUC rises from 0.947 to 0.976.

Compared with “NCI-H187 (small cell lung carcinoma, suspension, top dose 20 µM)”, “WIL2-NS (lymphoid neoplasm, suspension, top dose 20 µM)” is lower in AUC: 0.984 for the first, 0.921 for the second.

Work on “KP-3 (pancreas, adherent, top dose 20 µM)” yielded an AUC of 0.979.

Compared with “RPMI-7951 (melanoma, adherent, top dose 20 µM)”, “RH-41 (rhabdomyosarcoma, adherent, top dose 20 µM)” is higher in IC50: 18.2 µM for the first, over 20 µM for the second.

“SNU-182 (liver, adherent, top dose 10.24 µM)” and “A101D (melanoma, adherent, top dose 20 µM)” cannot be ordered by IC50: over 10.2 µM for the first, over 20 µM for the second.

“BEN (non-small cell lung carcinoma, adherent, top dose 20 µM)” and “LoVo (large intestine, adherent, top dose 20 µM)” cannot be ordered by IC50: over 20 µM for the first, over 20 µM for the second.

“NCI-H520 (lung squamous cell carcinoma, adherent, top dose 20 µM)” and “EFM-192A (breast, adherent, top dose 20 µM)” cannot be ordered by IC50: over 20 µM for the first, over 20 µM for the second.

“Caov-4 (ovary, adherent, top dose 20 µM)” and “HOS (osteosarcoma, adherent, top dose 20 µM)” cannot be ordered by IC50: over 20 µM for the first, over 20 µM for the second.

Compared with “EW-11 (Ewing sarcoma, adherent, top dose 20 µM)”, “GDM-1 (acute myeloid leukaemia, suspension, top dose 20 µM)” is lower in IC50: over 20 µM for the first, 0.614 µM for the second.

“WM793B (melanoma, adherent, top dose 20 µM)” and “OCUM-1 (stomach, adherent, top dose 20 µM)” cannot be ordered by IC50: over 20 µM for the first, over 20 µM for the second.

“CAL-29 (bladder, adherent, top dose 20 µM)” and “HCC2157 (breast, suspension, top dose 20 µM)” cannot be ordered by IC50: over 20 µM for the first, over 20 µM for the second.

“SIMA (neuroblastoma, adherent, top dose 20 µM)” and “WSU-DLCL2 (B-cell lymphoma, suspension, top dose 20 µM)” cannot be ordered by IC50: over 20 µM for the first, over 20 µM for the second.

“NCI-H2141 (small cell lung carcinoma, suspension, top dose 20 µM)” and “A427 (non-small cell lung carcinoma, adherent, top dose 20 µM)” cannot be ordered by IC50: over 20 µM for the first, over 20 µM for the second.

“Hs633T (fibrosarcoma, adherent, top dose 20 µM)” and “SW948 (large intestine, adherent, top dose 20 µM)” cannot be ordered by IC50: over 20 µM for the first, over 20 µM for the second.

“TUR (B-cell lymphoma, suspension, top dose 20 µM)” and “JVM-2 (lymphoid neoplasm, suspension, top dose 20 µM)” cannot be ordered by IC50: over 20 µM for the first, over 20 µM for the second.

“IA-LM (large cell lung carcinoma, adherent, top dose 20 µM)” and “NCI-H2342 (lung adenocarcinoma, adherent, top dose 20 µM)” cannot be ordered by IC50: over 20 µM for the first, over 20 µM for the second.

“NCI-H1836 (small cell lung carcinoma, suspension, top dose 20 µM)” and “NOMO-1 (acute myeloid leukaemia, suspension, top dose 20 µM)” cannot be ordered by IC50: over 20 µM for the first, over 20 µM for the second.

“BxPC-3 (pancreas, adherent, top dose 20 µM)” and “Hs766T (pancreas, adherent, top dose 20 µM)” cannot be ordered by IC50: over 20 µM for the first, over 20 µM for the second.

“SNU-81 (large intestine, adherent, top dose 20 µM)” and “KYSE-220 (oesophagus, adherent, top dose 20 µM)” cannot be ordered by IC50: over 20 µM for the first, over 20 µM for the second.

Going from “G-361 (melanoma, adherent, top dose 20 µM)” to “SIG-M5 (acute myeloid leukaemia, suspension, top dose 20 µM)”, the IC50 falls from over 20 µM to 1.52 µM.

“8-MG-BA (glioma, adherent, top dose 20 µM)” and “RERF-LC-KJ (lung adenocarcinoma, adherent, top dose 20 µM)” cannot be ordered by IC50: over 20 µM for the first, over 20 µM for the second.

“NCI-H187 (small cell lung carcinoma, suspension, top dose 20 µM)” and “WIL2-NS (lymphoid neoplasm, suspension, top dose 20 µM)” cannot be ordered by IC50: over 20 µM for the first, over 20 µM for the second.

In the case of “KP-3 (pancreas, adherent, top dose 20 µM)”, the IC50 is reported as over 20 µM.
